# Patent US20200261595A1 (Novo Nordisk, published 2020)
# Key:
# insulin receptor A = assay: insulin receptor binding assay as in Vienberg et al. 2011; relative to human insulin on insulin receptor A (100%)
# [1] = molecular target: insulin receptor of isolated rat adipocytes (rat, UniProt P15127); assay: cell-based or functional assay
Binder,Insulin receptor affinity [IC50 relative to HI (%)] (insulin receptor A),Lipogenesis in rat adipocytes [Potency (%)] Mean Value [1]
"A14E, B(-78K^), B(-77P), B(-1)(GQAPGQAPGQEP)6-GQAP, B3Q, B25H, B29R, desB30 human insulin/(227A, 234A, 235K hIgG4-Fc([…])) … (other, Cys229 (EU numbering) sulphur bound to an acetyl arm of the linker; B(-78K) N(eps) acylated by the trivalent linker 4-[bis[2-[(2-acetyl)amino]ethyl]amino]-4-oxo-butanoyl, also called Ex 5.3) chain 1: [letters of about 20 residues not shown] chain 2: KPGQAPGQAPGQEPGQAPGQAPGQEPGQAPGQAPGQEPGQAPGQAPGQEPGQAPGQAPGQEPGQAPGQAPGQEPGQAPFVQQHLCGSHLVEALYLVCGERGFHYTPR chain 3: ASCPAPEAKGGPSVFLFPPKPKDTLMISRTPEVTCVVVDVSQEDPEVQFNWYVDGVEVHNAKTKPREEQFNSTYRVVSVLTVLHQDWLNGKEYKCKVSNKGLPSSIEKTISKAKGQPREPQVYTLPPSQEEMTKNQVSLTCLVKGFYPSDIAVEWESNGQPENNYKTTPPVLDSDGSFFLYSRLTVDKSRWQEGNVFSCSVMHEALHNHYTQKSLSLSLGK",2.57%,0.55 % of human insulin
"A14E, B(-78K^), B(-77P), B(-1)(GQAP)19, B25H, B29R, desB30 human insulin/(227A, 234A, 235K, 297E, 315Q, 384Q, des447 hIgG4-Fc([…])) … (other, Cys229 (EU numbering) sulphur bound to an acetyl arm of the linker; B(-78K) N(eps) acylated by the trivalent linker 4-[bis[2-[(2-acetyl)amino]ethyl]amino]-4-oxo-butanoyl, also called Ex 5.18) chain 1: [letters of about 20 residues not shown] chain 2: KPGQAPGQAPGQAPGQAPGQAPGQAPGQAPGQAPGQAPGQAPGQAPGQAPGQAPGQAPGQAPGQAPGQAPGQAPGQAPFVNQHLCGSHLVEALYLVCGERGFHYTPR chain 3: ASCPAPEAKGGPSVFLFPPKPKDTLMISRTPEVTCVVVDVSQEDPEVQFNWYVDGVEVHNAKTKPREEQFESTYRVVSVLTVLHQDWLQGKEYKCKVSNKGLPSSIEKTISKAKGQPREPQVYTLPPSQEEMTKNQVSLTCLVKGFYPSDIAVEWESQGQPENNYKTTPPVLDSDGSFFLYSRLTVDKSRWQEGNVFSCSVMHEALHNHYTQKSLSLSLG",2.78%,
"A14E, B(-78K^), B(-77P), B(-1)(GQEP)19, B25H, B29R, desB30 human insulin/(227A, 234A, 235K hIgG4-Fc([…])) 4-[bis[2-[(2-acetyl)amino]ethyl]amino]-4-oxo-butanoyl … (other, Cys229 (EU numbering) sulphur bound to an acetyl arm of the linker; B(-78K) N(eps) acylated by the trivalent linker 4-[bis[2-[(2-acetyl)amino]ethyl]amino]-4-oxo-butanoyl, also called Ex 5.4) chain 1: [letters of about 20 residues not shown] chain 2: KPGQEPGQEPGQEPGQEPGQEPGQEPGQEPGQEPGQEPGQEPGQEPGQEPGQEPGQEPGQEPGQEPGQEPGQEPGQEPFVNQHLCGSHLVEALYLVCGERGFHYTPR chain 3: ASCPAPEAKGGPSVFLFPPKPKDTLMISRTPEVTCVVVDVSQEDPEVQFNWYVDGVEVHNAKTKPREEQFNSTYRVVSVLTVLHQDWLNGKEYKCKVSNKGLPSSIEKTISKAKGQPREPQVYTLPPSQEEMTKNQVSLTCLVKGFYPSDIAVEWESNGQPENNYKTTPPVLDSDGSFFLYSRLTVDKSRWQEGNVFSCSVMHEALHNHYTQKSLSLSLGK",2.14%,0.36 % of human insulin
"A14E, B(-78K^), B(-77P), B(-1)(GQEP)19, B25H, B29R, desB30 human insulin/(227A, 234A, 235K, 297E, 315Q, 384Q, des447 hIgG4-Fc([…])) … (other, Cys229 (EU numbering) sulphur bound to an acetyl arm of the linker; B(-78K) N(eps) acylated by the trivalent linker 4-[bis[2-[(2-acetyl)amino]ethyl]amino]-4-oxo-butanoyl, also called Ex 5.11) chain 1: [letters of about 20 residues not shown] chain 2: KPGQEPGQEPGQEPGQEPGQEPGQEPGQEPGQEPGQEPGQEPGQEPGQEPGQEPGQEPGQEPGQEPGQEPGQEPGQEPFVNQHLCGSHLVEALYLVCGERGFHYTPR chain 3: ASCPAPEAKGGPSVFLFPPKPKDTLMISRTPEVTCVVVDVSQEDPEVQFNWYVDGVEVHNAKTKPREEQFESTYRVVSVLTVLHQDWLQGKEYKCKVSNKGLPSSIEKTISKAKGQPREPQVYTLPPSQEEMTKNQVSLTCLVKGFYPSDIAVEWESQGQPENNYKTTPPVLDSDGSFFLYSRLTVDKSRWQEGNVFSCSVMHEALHNHYTQKSLSLSLG",1.72%,0.39 % of human insulin
